Assay results reported in PubChem BioAssay AID686979 (National Center for Advancing Translational Sciences (NCATS), 2013).
Hit rate of the full screen: of about 420,000 compounds, about 50,000 (12%) were called active. Inconclusive results, whose numbers are uncertain, are shown with a selection of clear calls. Calls follow the shape of the dose curve; as a rule, active = well fitted inhibition curve with a large enough effect; inconclusive = small, poorly fitted or top-dose-only effect; inactive = flat fitted curve, though single readings scatter. No potency is given beside an inconclusive call; the fits are too rough.

Assay: qHTS for Inhibitors of human tyrosyl-DNA phosphodiesterase 1 (TDP1): qHTS in cells in presence of CPT; also: nearly all actives have a fitted effect of over 55% in size
Details: chicken DT40 Tdp1-/-;hTDP1 cells + 20 nM CPT, ATP luminescence, 48 h; series mostly up to 46.2 µM
Method in brief: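 Chicken DT40 Tdp1-/- cells stably complemented with human TDP1 were seeded at 400 cells/well in medium containing 20 nM camptothecin, exposed to pin-transferred compounds, and grown at 37 °C for at least 48 hr. Viability was read as ATP luminescence.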
Potency is read from the fitted curve at half-maximal effect; tags tell the direction and shape of the fitted curve.

Row | Structure (SMILES) | Potency
1 | Cc1cc(C)cc(NS(=O)(=O)c2ccc3c(c2)C(C)(C)C(=O)N3C)c1 | inconclusive [inhibitor, single point]
2 | COc1ccc(CNc2nc(-c3c(C)noc3C)nc3ccccc23)c(OC)c1 | inconclusive [inhibitor, single point]
3 | Cc1nc2c(c3c1[nH]c1ccccc13)C(=O)CC(C)(C)C2 | inconclusive [inhibitor, single point]
4 | COc1ccc([C@H]2CC(=O)C=C(c3cccc(C#N)c3)C2)cc1 | inconclusive [inhibitor, single point]
5 | Cc1noc(C)c1S(=O)(=O)N1CCC(Cc2ccccc2)CC1 | inconclusive [inhibitor, single point]
6 | COc1ccc(C(=O)NNC(=S)NC(=O)c2ccc(F)cc2)cc1Br | inconclusive [inhibitor, single point]
7 | Cc1cc(S(=O)(=O)N2CCCOC2CNC(=O)C(=O)NCc2ccco2)ccc1F (stereo not given) | inactive
8 | O=C(NCc1ccccc1)C(C1CC1)n1c(-c2cccs2)nc2ccccc21 (stereo not given) | active: 10.3 µM
9 | CCN1CCC(N(Cc2ccc(F)cc2)C(=O)Nc2cccc(C(F)(F)F)c2)CC1 | active: 16.4 µM
10 | COc1cccc(OCC(Cn2cnc3ccccc32)OC(C)=O)c1 (stereo not given) | inconclusive [inhibitor, single point]
11 | CCCCNC(=O)c1c(CSc2ccccc2)noc1C(=O)NCc1ccccc1 | inconclusive [inhibitor, single point]
12 | COc1ccc(-n2c(=O)c3c4c(sc3n3c(=S)[nH]nc23)CCC4)cc1 | inactive
13 | CCN(CC(O)COCc1ccc(Cl)cc1)C1CCCCC1 (stereo not given) | inactive
14 | Cc1ccccc1OCCCC(=O)Nc1ccc(N2CCOCC2)cc1 | inconclusive [inhibitor, single point]
15 | O=c1oc2ccccc2c(N2CCCC2)c1[N+](=O)[O-] | inactive
16 | COc1ccc(N2CCN(C(=O)C3(C)CC3(Cl)Cl)CC2)cc1 (stereo not given) | inactive
17 | C/C(=N\N=C(/N)SC1CC(=O)N(c2ccc(Cl)cc2)C1=O)c1cccs1 (stereo not given) | inactive
18 | COc1cccc(-c2ccc(NC(=O)C3CCCN(Cc4ccccn4)C3)cc2)c1 (stereo not given) | inconclusive [inhibitor, single point]
19 | COc1ncnc(-c2ccccc2)c1-c1ccccc1 | inconclusive [inhibitor, single point]
20 | CCOc1ccccc1N1CCN(C(=O)Cc2ccc(S(=O)(=O)N3CCOCC3)s2)CC1 | inconclusive [inhibitor, single point]
